{"source": "PubChem BioAssay AID1347120", "about": "(National Center for Advancing Translational Sciences (NCATS), 2019)", "note": "Screen size: about 390,000 compounds; about 930 (0.24%) were called active. This list was built around the results that the source calls inconclusive (neither active nor inactive); the mix of calls is not that of the screen. Calls follow the shape of the dose curve; as a rule, active = well fitted activation curve with a large enough effect; inconclusive = small, poorly fitted or top-dose-only effect; inactive = no such curve, though single readings can be large or run the other way. A potency beside an inconclusive call is a rough fit, not a confirmed value. Potency is read from the fitted curve at half-maximal effect; tags tell the direction and shape of the fitted curve."}
{"assay": "qHTS for Suppressors of FUS Proteinopathy: Primary screen using FUS-linked yeast assay; also: nearly all actives have a fitted effect of over 55% in size;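 as to growth rescue (activation): plate controls were DMSO vehicle for no effect and reference control for full effect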", "conditions": "S. cerevisiae FUS-expressing, OD600, 24 h; Potency: growth rescue; growth rescue (activation): at 76.6 µM (top of the series)", "outline": "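Quantitative HTS measuring growth restoration of FUS-toxic yeast. Galactose-induced cells (OD 0.005) were exposed 24hr at 30C to compounds at several concentrations, then absorbance at 600 nm was recorded.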"}
{"smiles": "Cc1ccc(Nc2nc(=O)c3cc([N+](=O)[O-])ccc3s2)cc1", "Potency": "inconclusive: 28.2 µM [activator, single point]"}
{"smiles": "Cc1ccc(C)c(N2CCN(S(=O)(=O)c3ccc(C(=O)N(C)C)s3)CC2)c1", "Potency": "inconclusive: 31.6 µM [activator, single point]"}
{"smiles": "COc1cc(C(=O)OCc2cccc(S(=O)(=O)N3CCOCC3)c2)ccc1OCC(C)C", "Potency": "inconclusive: 44.7 µM [activator, single point]"}
{"smiles": "O=c1c2sc3nc(N4CCOCC4)c4c(c3c2ncn1-c1ccccc1)CCCC4", "Potency": "inconclusive: 28.2 µM [activator, single point]"}
{"smiles": "CCCCN(CC)CCCNC(=O)c1cn(CC)c2ccc(S(=O)(=O)N3CCc4ccccc4C3)cc2c1=O", "Potency": "inconclusive: 2.51 µM [activator, full curve, poor fit]"}
{"smiles": "C=CCNc1nc(-c2ccc(Cl)cc2)cs1", "growth rescue (activation)": "inactive: -26.4%"}
{"smiles": "Cc1ccc(NC(=O)N2CCN(C/C=C/c3ccccc3)CC2)cc1", "growth rescue (activation)": "inactive: -5.14%"}
{"smiles": "CCOc1ccc(C(=O)NCc2ccco2)cc1", "Potency": "inconclusive: 50.1 µM [activator, single point]"}
{"smiles": "COc1ccccc1CNC(=O)c1cccc2c1C(=O)N(Cc1cccnc1)C2", "growth rescue (activation)": "inactive: 16.6%"}
{"smiles": "COC(=O)c1c(NC(=O)CSc2nnc(-c3ccco3)n2Cc2ccccc2)sc(C)c1C", "Potency": "inconclusive: 50.1 µM [activator, single point]"}
{"smiles": "CCOC(=O)c1c(C)nc2ccc(Cl)cc2c1-c1ccccc1", "Potency": "inconclusive: 50.1 µM [activator, single point]"}
{"smiles": "COC(=O)c1cc(N=Nc2c(C)[nH]c3ccccc23)cc(C(=O)OC)c1", "growth rescue (activation)": "inactive: -13.4%"}
{"smiles": "CCOC(=O)c1c(C)oc2c1c1c(c3ccccc32)OCN(Cc2ccccn2)C1", "Potency": "inconclusive: 39.8 µM [activator, single point]"}
{"smiles": "COc1ccc(C(C(=O)NC(C)(C)C)N(C(=O)CNC(=O)c2cccs2)c2ccc(C(C)C)cc2)cc1OC", "note": "(centres undefined)", "Potency": "inconclusive: 35.5 µM [activator, single point]"}
{"smiles": "Nc1cc(N)cc(-c2nc3ccccc3[nH]2)c1", "Potency": "inconclusive: 3.98 µM [activator, full curve, poor fit]"}
{"smiles": "Oc1ccc(/C=N/N(Cc2ccccc2)c2ccccc2)cc1", "Potency": "inconclusive: 28.2 µM [activator, partial curve, poor fit]"}
{"smiles": "CCOC(=O)c1c(C)[nH]c(C(=O)Cn2c(=O)c3c(ncn3CC)n(Cc3ccccc3)c2=O)c1C", "Potency": "inconclusive: 7.94 µM [activator, partial curve]"}
{"smiles": "COc1cc(N)c(Cc2nccc3cc(OC)c(OC)cc23)cc1OC", "Potency": "inconclusive: 28.2 µM [activator, single point]"}
{"smiles": "NC(=O)CC(NC(=O)c1ccc(Br)cc1)c1ccc(N2CCCCCCC2)c([N+](=O)[O-])c1", "note": "(centres undefined)", "Potency": "inconclusive: 22.4 µM [activator, partial curve]"}
{"smiles": "COc1ccc(CN2C(=O)c3cccnc3C2Nc2ccc(C)cc2)cc1", "note": "(centres undefined)", "Potency": "inconclusive: 10 µM [activator, partial curve]"}
{"smiles": "CCOC(=O)c1c(NC(=O)CSc2nnnn2C)sc(C)c1-c1ccc(C)cc1", "Potency": "inconclusive: 17.8 µM [activator, partial curve, poor fit]"}
{"smiles": "COc1cc(C(c2c(C)[nH][nH]c2=O)c2c(C)[nH][nH]c2=O)ccc1OC(=O)c1cccc([N+](=O)[O-])c1", "Potency": "inconclusive: 31.6 µM [activator, single point]"}
{"smiles": "O=C(CCn1c(=O)c2ccccc2n(CC(=O)NCCC2=CCCCC2)c1=O)NCc1ccco1", "Potency": "inconclusive: 4.47 µM [activator, full curve]"}
{"smiles": "COc1ccccc1NC(=O)C1=C(C)Nc2nc(-c3ccc(N(C)C)cc3)nn2C1c1ccncc1", "note": "(centres undefined)", "Potency": "inconclusive: 17.8 µM [activator, partial curve, poor fit]"}
{"smiles": "O=C(c1cc(-c2cccc(Br)c2)nc2ccccc12)N1CCCC1", "Potency": "inconclusive: 28.2 µM [activator, partial curve, poor fit]"}
{"smiles": "CS(=O)(=O)c1ccc(Cl)c(NC(=O)CSc2nncn2-c2ccccc2)c1", "Potency": "inconclusive: 17.8 µM [activator, partial curve, poor fit]"}
{"smiles": "CC1CCCC(NC(=O)COC(=O)c2cc(S(=O)(=O)N3CCCCC3)ccc2N2CCOCC2)C1C", "note": "(centres undefined)", "Potency": "inconclusive: 28.2 µM [activator, single point]"}
{"smiles": "CCOc1ccc(-n2c(SCC(=O)Nc3ccc(S(=O)(=O)Nc4cc(C)nc(C)n4)cc3)nnc2-c2ccc(C)cc2)cc1", "Potency": "inconclusive: 4.47 µM [activator, full curve]"}
{"smiles": "O=C(NC(=S)N1CCN(c2ccccn2)CC1)c1ccccc1", "growth rescue (activation)": "inactive: -0.844%"}
{"smiles": "O=C(CSc1nccn1C1CCCC1)Nc1cc(C(F)(F)F)ccc1Cl", "growth rescue (activation)": "inactive: 9.55%"}
{"smiles": "COc1cc(C(=O)Nc2ccc3nc(N4CCN(C)CC4)cc(C)c3c2)cc(OC)c1OC", "growth rescue (activation)": "inactive: -19.3%"}
{"smiles": "COc1ccc(OC)c(-n2c3c(cc(-c4nc(-c5ccc(Cl)cc5)cs4)c2=O)C(=O)CC(C)(C)C3)c1", "growth rescue (activation)": "inactive: -10.9%"}
{"smiles": "CCN(C(=O)CSc1nccn1C)c1cccc2ccccc12", "Potency": "inconclusive: 28.2 µM [activator, partial curve, poor fit]"}
{"smiles": "COC(=O)Cn1c(=NC(=O)c2cc(OC)cc(OC)c2)sc2cc(OC)ccc21", "growth rescue (activation)": "inactive: 5.14%"}
{"smiles": "CSc1ccc(NC(=O)CSc2nc3[nH]c(=O)cc(O)c3s2)cc1", "Potency": "inconclusive: 10 µM [activator, partial curve, poor fit]"}
{"smiles": "Cc1ccccc1-c1cc(-c2ccccc2O)n[nH]1", "growth rescue (activation)": "inactive: 7.05%"}
{"smiles": "O=C(OCc1cn([C@H]2C[C@H](c3ccc(Cl)cc3)N(Cc3cccs3)C[C@@H]2O)nn1)c1ccccc1", "Potency": "inconclusive: 22.4 µM [activator, single point]"}
{"smiles": "CCOc1ccc(/C=N/NC(=O)NC23CC4CC(CC(C4)C2)C3)cc1O", "Potency": "inconclusive: 7.08 µM [activator, partial curve, poor fit]"}
{"smiles": "COc1cc(NC(=O)C(Cc2ccccc2)NS(=O)(=O)c2cccs2)cc(OC)c1", "note": "(centres undefined)", "growth rescue (activation)": "inactive: 1.57%"}
{"smiles": "COc1ccc(-c2cnc(C)o2)cc1S(=O)(=O)Nc1ccc(OC(F)(F)F)cc1", "growth rescue (activation)": "inactive: 20.4%"}
{"smiles": "Cc1ccc(C)c(CSc2nnc(C)n3c2cc2sccc23)c1", "Potency": "inconclusive: 39.8 µM [activator, single point]"}
{"smiles": "O=S(=O)(c1ccc(Cl)s1)N1CCN(C/C=C/c2ccccc2)CC1", "growth rescue (activation)": "inconclusive: 61% [activator]"}
{"smiles": "CN(C)c1ccc(C(=O)N2CCNC(=O)C2CC(=O)Nc2ccc(F)cc2)cc1", "note": "(centres undefined)", "growth rescue (activation)": "inactive: 3.68%"}
{"smiles": "Cc1cc(S(=O)(=O)Nc2noc3ccccc23)ccc1F", "growth rescue (activation)": "inactive: 10.9%"}
{"smiles": "Cc1ccc(C(=O)c2cccc(N)c2)cc1C", "growth rescue (activation)": "inactive: -8.98%"}
{"smiles": "Oc1cccc2ccc(/C=C/c3ccccc3Br)nc12", "growth rescue (activation)": "inactive: 1.38%"}
{"smiles": "CCc1nn2c(=O)cc(COC(=O)c3ccccc3NC(=O)COc3ccc(C)c(C)c3)nc2s1", "growth rescue (activation)": "inactive: -4.87%"}
{"smiles": "COc1ccc(N2C(=O)N3[C@H](c4ccc(Br)cc4)[C@@H]4C(=O)N(C(C)(C)C)C(=O)[C@@H]4[C@]3(Cc3ccccc3)C2=O)cc1", "Potency": "active: 12.6 µM"}
{"smiles": "CCOC(=O)[C@@H]1CCNC[C@@H]1c1ccccc1", "Potency": "inconclusive: 5.01 µM [activator, single point]"}
{"smiles": "Cc1cccc(C)c1NC(=O)C(c1ccccc1)n1c(-c2ccccc2)nc2ccccc21", "note": "(centres undefined)", "Potency": "inconclusive: 31.6 µM [activator, single point]"}
{"smiles": "O=S(=O)(c1ccc(SCc2c(F)cccc2Cl)nc1)N1CCCC1", "Potency": "inconclusive: 10 µM [activator, partial curve, poor fit]"}
{"smiles": "C[C@@H](C(=O)Nc1ccc2ccccc2c1)[C@@H]1C[C@@]1(C)[C@@H](NC(=O)c1cnccn1)c1ccccc1", "Potency": "inconclusive: 31.6 µM [activator, single point]"}
{"smiles": "C[C@]1(C(=O)NCCCNc2ncc(C(F)(F)F)cc2Cl)C=C[C@@H](Cc2ccccc2)N1C(=O)c1ccccc1", "Potency": "active: 25.1 µM"}
{"smiles": "COc1ccccc1-c1nc(C(=O)NCC2CCCO2)cc2c1[nH]c1ccccc12", "note": "(centres undefined)", "Potency": "inconclusive: 28.2 µM [activator, single point]"}
{"smiles": "Cc1ccc(S(=O)(=O)Nc2nc3ccccc3nc2NCC2CCCO2)cc1C", "note": "(centres undefined)", "Potency": "inconclusive: 31.6 µM [activator, single point]"}
{"smiles": "CC(=O)Nc1cccc(-c2ccnc3c2CC(C(=O)Nc2ccc(C(C)C)cc2)O3)c1", "note": "(centres undefined)", "Potency": "inconclusive: 35.5 µM [activator, single point]"}
{"smiles": "Cc1nn(-c2ccc(NC(=O)c3ccncc3)cc2)c(C)c1Cl", "growth rescue (activation)": "inactive: 16%"}
{"smiles": "COc1ccc(C(=O)CC2(O)C(=O)N(Cc3cccc(C(F)(F)F)c3)c3ccccc32)cc1", "note": "(centres undefined)", "Potency": "inconclusive: 14.1 µM [activator, partial curve, poor fit]"}
{"smiles": "CCOC(=O)c1ccc(-n2c(CCC(=O)O)ccc2-c2ccccc2)cc1", "Potency": "inconclusive: 44.7 µM [activator, single point]"}
{"smiles": "O=c1c2ccccc2sc2ccc(C#CC3(O)CCCCC3)cc12", "Potency": "inconclusive: 50.1 µM [activator, single point]"}
{"smiles": "Cn1ncc2c(N3CCN(c4ccccc4F)CC3)ncnc21", "Potency": "inactive"}
{"smiles": "COc1ccc(/C=C2\\SC(=S)N(CCC(=O)Nc3cccc(C(=O)O)c3)C2=O)cc1OC", "Potency": "inconclusive: 25.1 µM [activator, partial curve, poor fit]"}
{"smiles": "CCCCC1=CC2=C(c3ccco3)C(=O)C(C)(OC(=O)c3ccc(OC)cc3)C(=O)C2=CN1Cc1ccco1", "note": "(centres undefined)", "Potency": "inconclusive: 25.1 µM [activator, single point]"}
{"smiles": "Cc1ccc(NC(=O)c2oc3ccc4c(c3c2C)C(=O)CC(C)(C)O4)c(C)c1", "growth rescue (activation)": "inactive: 0.432%"}
